According to the supplement of paper PMC3334620:
The full ranking holds about 33,000 sequences; the median of “E-score (-0.5 to 0.5)” is about -0.021, and the highest 2% start at about 0.32. The list shows a part of the results.

Molecular target: T1, Zap1 (UniProt P47043)
T1 sequence: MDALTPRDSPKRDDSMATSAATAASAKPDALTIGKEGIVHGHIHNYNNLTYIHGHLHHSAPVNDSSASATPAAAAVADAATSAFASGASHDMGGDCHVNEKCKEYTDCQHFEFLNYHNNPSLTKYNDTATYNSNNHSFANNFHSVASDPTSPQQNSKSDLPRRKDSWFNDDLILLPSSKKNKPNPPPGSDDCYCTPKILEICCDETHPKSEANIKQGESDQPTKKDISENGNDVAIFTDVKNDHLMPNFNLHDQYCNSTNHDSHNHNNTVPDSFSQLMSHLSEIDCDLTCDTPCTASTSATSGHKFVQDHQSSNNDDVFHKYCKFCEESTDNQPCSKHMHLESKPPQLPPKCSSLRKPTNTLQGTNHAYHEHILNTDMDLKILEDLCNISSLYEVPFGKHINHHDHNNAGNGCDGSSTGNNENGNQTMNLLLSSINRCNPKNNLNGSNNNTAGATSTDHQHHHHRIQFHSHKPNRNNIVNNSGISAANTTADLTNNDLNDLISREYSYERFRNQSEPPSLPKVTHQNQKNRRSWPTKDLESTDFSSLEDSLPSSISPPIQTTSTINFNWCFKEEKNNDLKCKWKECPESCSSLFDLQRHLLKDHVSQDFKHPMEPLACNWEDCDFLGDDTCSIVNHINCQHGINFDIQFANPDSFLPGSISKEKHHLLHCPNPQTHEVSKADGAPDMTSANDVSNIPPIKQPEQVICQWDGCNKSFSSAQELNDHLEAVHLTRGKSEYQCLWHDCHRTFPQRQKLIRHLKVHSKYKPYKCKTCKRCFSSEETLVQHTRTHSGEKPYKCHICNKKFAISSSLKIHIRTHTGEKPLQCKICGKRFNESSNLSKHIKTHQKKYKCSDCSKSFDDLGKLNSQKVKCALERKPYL
Test: PBM E-score (8-mer binding enrichment) (E-score (-0.5 to 0.5)); higher = stronger / more preferred TF binding; most listed sequences are background and not binding sites
Settings: protein concentration: 200 nM; construct: GST-full length
Experimental: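 Universal 'all 10-mer' protein binding microarrays (Agilent AMADID 015681) probed with GST-tagged S. cerevisiae TFs (full-length or DBD) made by in vitro transcription/translation (PURExpress), about 100-200 nM. Bound TF was detected with fluorescent anti-GST. Each ungapped 8-mer (which stands for itself and its reverse complement) is scored by the PBM enrichment score (E-score), a modified Wilcoxon-Mann-Whitney statistic from -0.5 to +0.5, computed with the Universal PBM Analysis Suite. Scale: above 0.35 generally sequence-specific binding.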

Sequence | PBM E-score
CTCCCAAG | -0.0957
GTCCTTCA | 0.176
AAGGACTT | -0.147
AGCCTCAT | -0.1
ATCTCATC | -0.147
AAACTCTC | -0.0702
CGAACCCA | -0.118
CATGGTTA | 0.415
AGTGTGAG | -0.096
CTGTACGA | -0.172
CAAATCCA | 0.0801
CGCCACCG | -0.0683
AAGGGTCT | 0.136
ACCAGTAG | -0.00366
CTTGGATA | -0.0692
ATTGGCGA | -0.121
GTTTAGGA | -0.105
AGAGCGGA | -0.2
AATCACCT | 0.215
AGGACGTC | -0.0914
AGCAGAGC | -0.285
ACAATGCC | -0.126
GCCTTGCA | -0.145
ATAAAGGG | 0.113
AGCATCTC | -0.169

Sequence | PBM E-score
CCTCTAAA | 0.0486
GCACAAAA | 0.214
CACCATCG | -0.208
ACCCTCTC | 0.121
GACTGTAC | -0.147
CTCGCAAA | -0.0959
GTCCCTAA | 0.109
CCGATTCG | 0.0615
ACGGTCAA | 0.177
CCTGGGAA | 0.107
AACGATAA | -0.0511
CATTACGA | 0.043
ATAACCCG | 0.442
CCTGATCA | -0.103
CGTCATCC | -0.0469
AAAGGATC | -0.0691
CGACCATA | 0.0398
ATACGTCG | -0.263
AGCCCGCT | -0.401
TACAAATA | 0.0955
AAAGACAT | -0.236
AAAGTTAC | 0.224
AGGGGCAT | -0.0286
CGGACCAC | 0.0856
CATTTGTA | 0.0822

Sequence | PBM E-score
AGACTGAG | -0.249
GGTATTAA | 0.254
ACGGACTG | -0.178
CGCCTGCA | -0.183
CGAACTAA | 0.137
GACGACGA | -0.144
GGAAATCC | 0.0669
AAAAACCA | 0.301
GCGATAAC | 0.268
CATGTGAG | -0.292
CCGTATGC | -0.226
CAGAAGGA | -0.165
GCGCGACC | 0.168
GTCCATGA | -0.0462
AACCTAAG | 0.198
AGCCCTCG | -0.161
CAGTTAAA | 0.189
TTCTTAAA | -0.028
AACAGATG | -0.00675
CCCGCAAA | 0.201
AAACAAAA | 0.141
TACCTAGA | 0.163
AACTAGGG | 0.173
ACAAAAAA | 0.317
CACTGTCA | 0.0475

Sequence | PBM E-score
CTCGCCTA | 0.103
CGCGAGAA | -0.129
CAGGAAAA | 0.109
AATGTGTA | -0.00653
GGAGACAC | -0.127
CACTATAC | -0.00462
AGGGACGG | -0.345
CGCCGCGC | -0.0986
CAGAAGCC | -0.173
TATCGCAA | 0.152
GAGTGAAC | -0.0653
ACAAAGCA | 0.104
AGCTCACG | -0.192
ACTTAACA | 0.01
CGCTACAC | -0.164
ATACCTGC | 0.062
ATCGTAAT | 0.119
AGCTAATG | -0.157
CCATTCAA | 0.0385
CGAGACAA | -0.15
GATGTGCA | -0.177
ATGTTTTC | 0.134
ATCAAATA | 0.115
ATGACGTA | -0.0713
ATGGTTGC | 0.0738

Sequence | PBM E-score
CAAGAACG | 0.0457
ATCATCTA | -0.0564
ACCCAGCA | 0.0307
ATCCTAAT | 0.0542
CACCCAGA | 0.199
CCTTGTTC | 0.125
ATAGTGAC | 0.0407
CATTGGCG | -0.249
GCAGCGAA | -0.137
ATTCTAGG | 0.0946
CTACAGAC | -0.0509
AGGAACAG | -0.183
AGATTCAG | -0.0502
CAAAGGGG | 0.00785
CCTAGGCC | -0.0276
CGGAGTGA | -0.138
AGCCAGCG | -0.332
ACTCTCCT | -0.264
CAAAGATC | 0.0185
AATGTCAG | -0.192
ACTCTCTA | -0.0413
GCCGACGC | -0.188
ACCGGCAA | 0.00718
AACAGCCG | -0.0886
CAGATGAA | -0.103

Sequence | PBM E-score
GACGACAC | 0.0795
ACAGCATA | -0.164
AGTTTACC | 0.0916
GCAGCGCA | -0.24
CTTTATCA | 0.0803
AAACGCCC | -0.185
ATGCATCA | 0.0512
CACAACTC | 0.151
CAAACAAG | -0.108
GCATCTCA | -0.125
ATACAAGG | 0.0518
CTCCGGAG | 0.114
ACATTGAG | -0.0894
GACTTAGA | -0.303
CAACAAAA | 0.17
CACCCTTC | 0.135
TTACATAA | 0.0316
TCCGCGGA | -0.0609
AGGAAACG | -0.206
CCCGTAAC | 0.306
TGAGGCAA | -0.177
ACTCTATG | 0.0053
ACGGTCAG | 0.0381
ACTGTGAA | 0.0644
ACTCGATC | -0.0618

Sequence | PBM E-score
CAAGGCGA | -0.182
CACTTGCA | -0.105
GGTGAGAA | 0.0265
TCCAGAAA | -0.0224
CAGTTACG | -0.0217
CTAAGTGA | 0.0127
ATGCTATC | -0.0723
GAATTGTC | -0.211
CGACCCAA | 0.125
ATCTGAGG | 0.094
AGCAGAGG | -0.116
ACGTTCTC | -0.23
CTCCCGCC | -0.206
CGCTTCAC | -0.309
GGGGAACA | -0.0495
ATACCCGA | 0.224
AGAGTAGG | -0.0788
ACTCTTGC | 0.0703
ATGATAGG | -0.0377
AGTCAAAT | -0.135
AGGGTCCA | 0.214
GCATACGC | -0.175
AGCAGTAA | -0.0418
CAGAGCGA | -0.0856
GTGGTTTA | 0.213

Sequence | PBM E-score
AGGGGCGA | -0.0973
TTATTCAA | 0.191
ACATCTAA | -0.0571
GCGCGCCA | 0.0479
CCTCGCAA | 0.0775
AACCCTCG | 0.292
AGTAGAAG | -0.125
AAGACAGT | -0.096
ACAGGGGC | -0.0479
CAGTGGTA | 0.216
CCCCGAAC | 0.108
AATCTGGG | 0.13
ATAAGCGG | -0.0148
GCACCCAC | 0.0806
AAGGGGAA | -0.225
AGCTAGGA | -0.285
AACAGACT | -0.0825
ACTAGGAT | -0.0534
CCCGTACC | 0.119
AACGATCA | -0.00703
AAACTGAG | -0.125
CAGTTAGC | -0.293
GTGGCCGA | -0.00924
AGCAGGAC | -0.0469
GTGGATTA | -0.00084

Sequence | PBM E-score
CACTCAGA | 0.0859
AGTATTTC | 0.156
ATGACCGG | 0.0181
TATGTGGA | -0.0214
GATTCTCC | -0.198
CCCCTGAC | 0.113
AAACTCGT | 0.00536
CCCTTCAA | 0.0124
ACTCGAGC | 0.14
TAGGAGAA | -0.0857
AAATCGGT | -0.0736
CTCCTCGC | -0.326
AGCCGCTC | -0.0957
ATATGCGG | -0.00291
CAAGTACC | 0.263
AGCGCCAT | -0.275
ACGGAGTG | -0.263
AACTCTAG | 0.00907
AGATCCCT | -0.132
